{
  "source": "the supplement of paper PMC11417369",
  "note": "This is one part of the list.",
  "data": [
    {"system": "PfHDP1 homeodomain (GST-tagged)", "assay": "gcPBM binding intensity (ln(normalized median fluorescence intensity)); higher = stronger DNA binding", "how_it_was_run": "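Probes on an Agilent 4 × 180k array were primer-extended, double-stranded and 36 bp long, taken from intergenic genomic regions, with negative controls added. GST-tagged P. falciparum DNA-binding domains from E. coli, about 25 μg on average, were applied to the array for 1 h in 1× PBS containing 1% milk, 0.2 mg/ml BSA, 0.5% salmon testes DNA and 0.03% Triton X-100. Binding intensity, obtained after Alexa488 anti-GST antibody detection and a 488 nm scan, is the highest Masliner-normalised natural-log median intensity across replicate spots of either probe orientation.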", "values": [
      {"sequence": "ATATAATATGGTATTACACACTGTTATAAGTATGGC [CACACA_site2094]", "gcPBM binding intensity (ln)": 6.39},
      {"sequence": "CATAAATACACTGTAGCGCACACGGCCAAAAAAAAA [CACACA_site8537]", "gcPBM binding intensity (ln)": 7.06},
      {"sequence": "AATATTTAAGTACTGGTGCGTGTATATAATGATTAA [GTGCAC_site9633]", "gcPBM binding intensity (ln)": 7.48},
      {"sequence": "ATAAATAAAATATGCACACAAATATAGGAAACAACA [CACACA_site2561]", "gcPBM binding intensity (ln)": 10.1},
      {"sequence": "AAACTTGTAAGAAACACACACACACGCATATAAATA [CACACA_site6518]", "gcPBM binding intensity (ln)": 7.1},
      {"sequence": "GTAAAAAAAGAGCACACACACAAAAACACCCACAAA [CACACA_site1292]", "gcPBM binding intensity (ln)": 7.15},
      {"sequence": "TTTATTCCCGCATATAGTACATATACCATTTAATGT [XGTACX_site7011]", "gcPBM binding intensity (ln)": 7.07},
      {"sequence": "TTTTTTCTTTTTATAACACACAGGTGAAAAATAATA [CACACA_site1850]", "gcPBM binding intensity (ln)": 6.39},
      {"sequence": "TTTCCTCATTTTATCATACACACTTGTTTATATGTG [CACACA_site8202]", "gcPBM binding intensity (ln)": 6.65},
      {"sequence": "TCCTGTTGAGAATGGCGTACATATAAATATTATATA [XGTACX_site1841]", "gcPBM binding intensity (ln)": 6.32},
      {"sequence": "AAATAATAAATATATCGTACAAATATCATATATAAA [XGTACX_site2771]", "gcPBM binding intensity (ln)": 6.3},
      {"sequence": "CAGGTTCTTATATAGTGTACTATAGACATTCAATTG [XGTACX_site7239]", "gcPBM binding intensity (ln)": 6.4},
      {"sequence": "TATTACTTTATATATACACACATATAACATAAATGC [CACACA_site3948]", "gcPBM binding intensity (ln)": 6.81},
      {"sequence": "TAAATAATAATAAAATGTACATTATATATGTATATG [XGTACX_site8672]", "gcPBM binding intensity (ln)": 6.52},
      {"sequence": "TTTTTTTTTTTTTTCTGTACTGATACTTATAGAGTT [XGTACX_site4736]", "gcPBM binding intensity (ln)": 6.29},
      {"sequence": "AAAAAAATAAATAAGACACACACAAAAAAAAAAAAA [CACACA_site8404]", "gcPBM binding intensity (ln)": 6.36},
      {"sequence": "TCTTGTTATAATAATCAATATATGGGTATACTTATG [CACACA_negctrl_site1618]", "gcPBM binding intensity (ln)": 6.59},
      {"sequence": "AAAAGGATTTTTTATACACACACTAACTAATGTATA [CACACA_site2356]", "gcPBM binding intensity (ln)": 6.38},
      {"sequence": "AATAAAAAATAAAAAAGTACATGATGAAAAGGTTTA [XGTACX_site7615]", "gcPBM binding intensity (ln)": 6.8},
      {"sequence": "TCCCTGATGTTATTTAATATACCATAAAAAAAAAAA [CACACA_negctrl_site1472]", "gcPBM binding intensity (ln)": 6.11},
      {"sequence": "ATCTCAAATATAATAAATTATTAGGTATATATATAT [CACACA_negctrl_site1828]", "gcPBM binding intensity (ln)": 8.77},
      {"sequence": "TATATATATATATATACATGCATACAATTTTATGAG [TGCATGCA_site466]", "gcPBM binding intensity (ln)": 9.23},
      {"sequence": "CACACTTTATAATGTTGTACGATACATTATACCAAA [XGTACX_site941]", "gcPBM binding intensity (ln)": 6.45},
      {"sequence": "ACCCATATTCTTTTTACACACTTGAATAAAAAATAT [CACACA_site4797]", "gcPBM binding intensity (ln)": 6.67},
      {"sequence": "GAGATATAAAAGTGTACACATATTGTTATCCATATT [CACACA_site5441]", "gcPBM binding intensity (ln)": 6.49},
      {"sequence": "ATATACTTACATATTACACACAATATTTTTAAATGG [CACACA_site5916]", "gcPBM binding intensity (ln)": 6.79},
      {"sequence": "TATTTATAATTAAATACACACATATATTATAGATTT [CACACA_site6435]", "gcPBM binding intensity (ln)": 6.45},
      {"sequence": "TTGTATATACTATACACACACATACATACATACATA [CACACA_site814]", "gcPBM binding intensity (ln)": 6.93},
      {"sequence": "CTTTTGCCCAAAAAGGTACACACCACAAAGTACATA [CACACA_site8169]", "gcPBM binding intensity (ln)": 6.81},
      {"sequence": "TTTTATTCATCATATTGTACATTCTTGTATTTATAG [XGTACX_site8534]", "gcPBM binding intensity (ln)": 6.59},
      {"sequence": "CCAAACAAAAAAAAAAGTACATAAAACACCTATTTG [XGTACX_site5645]", "gcPBM binding intensity (ln)": 6.45},
      {"sequence": "ATAATTAGGGTGTATTTCATTTCATTTCATTTTATT [CACACA_negctrl_site1418]", "gcPBM binding intensity (ln)": 6.69},
      {"sequence": "AATATATAAATATATACACACAAAAACATATATATA [CACACA_site1318]", "gcPBM binding intensity (ln)": 6.68},
      {"sequence": "TATATACAAATATGTACACACATTACAGATGTACAT [CACACA_site6586]", "gcPBM binding intensity (ln)": 6.82},
      {"sequence": "TAGAAAAAATAAAATAGTACACATCCAAAAAAAAAA [XGTACX_site7829]", "gcPBM binding intensity (ln)": 6.45},
      {"sequence": "ATAATAAATGTCTTCAATGAAGTGGAAATGCTGTTA [TGCATGCA_negctrl_site238]", "gcPBM binding intensity (ln)": 6.36},
      {"sequence": "ATATATACATAGAATTGTACATAATTTATGTTCATT [XGTACX_site7426]", "gcPBM binding intensity (ln)": 6.16},
      {"sequence": "GATATAAACGTATATGTACATATATATATATATATA [GTGCAC_negctrl_site186]", "gcPBM binding intensity (ln)": 9.35},
      {"sequence": "TTGGAGTTCATATGTGGTACACATTTAAATATATTT [XGTACX_site5582]", "gcPBM binding intensity (ln)": 6.5},
      {"sequence": "AACGTATTATTTATCTGTACAAAATAATAACGTATT [XGTACX_site813]", "gcPBM binding intensity (ln)": 6.22},
      {"sequence": "ATCCAAATTAATAATAGTACTTTTAAGTCCTATGTA [XGTACX_site2452]", "gcPBM binding intensity (ln)": 5.77},
      {"sequence": "TAAATAAAAATACAGTGTACTTTTTTCTATTTAAAA [XGTACX_site3288]", "gcPBM binding intensity (ln)": 5.85},
      {"sequence": "TTTTGTTTTTTCAATGTGCACTTAGGATGTTTTTAT [GTGCAC_site9565]", "gcPBM binding intensity (ln)": 9.59},
      {"sequence": "CAAACAAATTGTGAAACACACATATATATATATATA [CACACA_site2001]", "gcPBM binding intensity (ln)": 9.39},
      {"sequence": "AATGATATATTTAAATGTACACATGAAATATAATAT [XGTACX_site2678]", "gcPBM binding intensity (ln)": 6.71},
      {"sequence": "TATCTTCAAGTATGTACACACTATATATAATAAAAT [CACACA_site5368]", "gcPBM binding intensity (ln)": 6.73},
      {"sequence": "TTATATTTGATAGTTTGTACATATAATTATTATCAT [XGTACX_site5676]", "gcPBM binding intensity (ln)": 6.68},
      {"sequence": "ATAATTACATTCCATACACACATATATTTAAAGGTT [CACACA_site7403]", "gcPBM binding intensity (ln)": 6.86},
      {"sequence": "TTCTTGTTCCTGAAAGTGCATATAACAAAAATAACA [GTGCAC_site9635]", "gcPBM binding intensity (ln)": 8.06},
      {"sequence": "TATATAAAAATATACACACACAAATGTATATATATA [CACACA_site220]", "gcPBM binding intensity (ln)": 7.45},
      {"sequence": "TACATACATACATACACACACATATAGATTTATATA [CACACA_site6999]", "gcPBM binding intensity (ln)": 7.43},
      {"sequence": "ATATATATATATATATCACACATTAATAATATATAT [CACACA_site5081]", "gcPBM binding intensity (ln)": 9.24},
      {"sequence": "ATCAATCATGGTTTTACACACACATGCATGTGAAAA [CACACA_site1350]", "gcPBM binding intensity (ln)": 6.78},
      {"sequence": "TCTTTATTATTCGCCACACACATATAAATATAAATA [CACACA_site7441]", "gcPBM binding intensity (ln)": 7.28},
      {"sequence": "AAAACATAACATTGTTGTACTACTAATAAAATAAGT [XGTACX_site6149]", "gcPBM binding intensity (ln)": 6.55},
      {"sequence": "ATAATTTTGTATAATTGTACATTATTTTAAATAAAT [XGTACX_site7952]", "gcPBM binding intensity (ln)": 6.36}
    ]}
  ]
}
